Test results published in the supplement of paper PMC12217912.
The list shows a part of the results. Sequences were assembled here from the parent chain. Inactive controls read about 0.05.

B1: TEV protease; numbered along this chain (parent)
chain: MGESLFKGPRDYNPISSSICHLTNESDGHTTSLYGIGFGPFIITNKHLFRRNNGTLVVQSLHGVFKVKDTTTLQQHLVDGRDMIIIRMPKDFPPFPQKLKFREPQREERICLVTTNFQTKSMSSMVSDTSCTFPSGDGIFWKHWIQTKDGQCGSPLVSTRDGFIVGIHSASNFTNTNNYFTSVPKNFMELLTNQEAQQWVSGWRLNADSVLWGGHKVFMVKPEEPFQPVKEATQL

Variants of: B1
Experiment: raw area under fraction-flipped curve 0-4 h after induction (AUC4h, not background-subtracted), DNA-recorder readout of cleavage of the substrate (dimensionless); higher = more cleavage of the substrate by the protease variant
Conditions: temperature: 34 °C; time window: 0-4 h after rhamnose induction
Procedure: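 In vivo DNA recorder in E. coli TOP10(DE3) ΔrhaA at 34 °C. Each TEVp single-site mutant (parent TEVp 0) is paired with a single-site variant of the 7-mer TEVs (canonical ENLYFQ|S). The substrate sits between flexible linkers in a Bxb1-sfGFP-TEVs-SsrA fusion, so cleavage stabilises Bxb1 and speeds flipping of a recombination array, read by NGS. The value is the raw area under the fraction-flipped curve over 0-4 h after rhamnose induction (AUC4h), with ≥20 reads per time point. It is not background-subtracted; inactive controls average about 0.047.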
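Further: Bxb1 expression induced with 0.2% (w/v) L-rhamnose at OD600 near 0.5, cultures sampled hourly, flipped fraction per protease–substrate barcode pair counted by paired-end Illumina sequencing.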

Variant	area with substrate ENLYFAS	area with substrate ENLYFCS	area with substrate ENLYFES	area with substrate ENLYFFS	area with substrate ENLYFHS	area with substrate ENLYFIS	area with substrate ENLYFMS	area with substrate ENLYFNS	area with substrate ENLYFPS	area with substrate ENLYFRS	area with substrate ENLYFTS	area with substrate ENLYFVS	area with substrate ENLYFWS	area with substrate ENLYFYS	area with substrate ENLYFDS	area with substrate ENLYFKS	area with substrate ENLYFLS	area with substrate ENLYFSS	area with substrate ENLYFGS
Q234S	0.0577	0.0521	0.0549	0.0799	0.0468	0.0589	0.0702	0.0675	0.0654	0.0597	0.0542	0.0622	0.0582	0.0583	–	–	–	–	–
Q234V	0.0578	0.0511	0.0546	–	0.0572	0.0542	0.0595	0.066	0.0404	0.0486	0.0577	0.0896	0.0619	–	0.0549	0.0678	0.0643	–	–
Q234T	0.0407	–	0.0631	0.0673	0.0713	0.0544	0.0725	–	0.0533	0.0649	–	–	0.0598	0.0626	0.0514	0.0714	0.0684	0.0693	–
S26Q	–	0.0435	0.069	0.0605	–	0.0526	0.0646	0.058	0.0559	–	0.0558	0.0878	0.0438	0.0665	0.0667	0.0489	–	0.0589	0.0669
L33H	–	0.058	0.0507	0.0718	0.0408	0.0597	0.0497	–	0.0604	0.044	0.0493	–	0.0527	0.0553	0.0608	0.076	–	–	0.0478
L235Q	0.0654	0.0543	0.0629	0.0801	–	0.0544	0.0715	0.0674	0.0485	0.0635	0.055	0.0607	–	–	–	–	0.0524	–	–
T233M	0.0502	0.0699	0.0532	0.0636	0.0607	0.0508	0.0699	0.0612	0.0604	0.0624	0.0607	0.073	–	0.057	–	0.0495	0.0625	–	–
T233Q	0.0714	–	0.0464	0.0678	–	0.0475	–	0.0718	0.0647	–	–	0.0595	0.0724	–	–	–	–	–	0.0447
S4Y	–	0.056	0.0787	0.0581	–	0.044	0.0538	0.0778	–	0.0432	0.0479	0.0925	–	–	–	0.0666	0.0554	–	–
S4I	–	0.0706	0.056	0.0641	0.0689	–	0.0819	0.0623	0.0731	0.0604	0.0614	–	0.0539	0.0411	0.0405	0.0562	–	0.0709	0.0477
P225K	0.0526	0.0526	–	0.073	–	0.0534	–	0.0861	0.0671	0.0645	0.0677	–	–	–	0.0892	0.0634	–	–	0.0576
P225C	0.0672	0.0602	0.0618	0.0745	0.0619	–	0.0609	0.0857	0.0602	0.0673	0.0597	0.0695	–	0.068	0.0633	–	0.0598	–	–
L22S	–	0.0399	0.0681	0.0527	0.0448	0.0422	0.0496	0.0464	0.0486	0.0508	0.0444	–	–	0.0647	0.0432	0.047	0.0438	0.0495	0.0593
